# Assay results from the supplement of paper PMC11417369.
# ± gives the standard deviation of the averaged measurements. This is one part of the list.
# Test system: PfAP2-G AP2 domain (GST-tagged)
# Test: gcPBM binding intensity (ln(normalized median fluorescence intensity)); higher = stronger DNA binding
# In short: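 GST-fused DNA-binding domains of P. falciparum, expressed in E. coli, were applied at about 25 μg on average for 1 h to an Agilent 4 × 180k array of primer-extended double-stranded 36-bp intergenic genomic probes and negative controls. Binding intensity is the highest Masliner-normalised natural-log median intensity across replicate spots of either probe orientation, measured with Alexa488 anti-GST antibody and a 488 nm scan.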
row,Sequence,gcPBM binding intensity (ln)
1,GTACATAATTATTATGCACACATATTTTTATGTATT [CACACA_site8132],10.8 ± 0.36
2,AATATATTTATAAGCACACACTAATAAACACAGACA [CACACA_site4377],10.3 ± 0.26
3,TAATAATAATTATATACACACATGTATATTATATTT [CACACA_site1501],9.81 ± 0.057
4,ACTCCTATATAAATGAACCATATTCATAATATATAT [CACACA_negctrl_site1636],10 ± 0.18
5,ATTTAAATATATTATTGTACATATACCTAATAAGAA [XGTACX_site6655],11.1 ± 0.73
6,AAGAGAAAAACATACACACACAACAAAATATGTATA [CACACA_site2719],9.95 ± 0.085
7,AAATGAAAGAATTAAAGTACATTTATATAATTTTAA [XGTACX_site3540],11.1 ± 0.71
8,ATTTTTTTTATTTTTTATATAATTTTTTTATATTAT [CACACA_negctrl_site1521],9.47 ± 0.26
9,TGTATTTATAAACATGCACACGTGGTTGTATTTATA [CACACA_site5762],10.175 ± 0.007
10,ATTTGTTTACCTAAAAGTACAAATTTTTTATGTATA [XGTACX_site7689],11 ± 0.66
11,ATATCTTATGTTATCACACACACACGCACAAAACAG [CACACA_site6800],10.8 ± 0.59
12,TATCCCTTAGAATACACACCCATATGAGTGTGAACT [CACACA_site7398],10.05 ± 0.057
13,TGTTTTGTTTTTTGGGGTACATGTTTTGTATTATAT [XGTACX_site7997],11.6 ± 0.78
14,AAAAAAAAAAAAAACATACACACAAATATATACATA [CACACA_site4010],9.97 ± 0.14
15,ATGTATTAAAAAAATTGTACTATAAAATGTAACCGC [XGTACX_site8083],11.1 ± 0.57
16,AAGGCAAGCACTTAAACATGCATATAATAATATCAT [TGCATGCA_site698],9.77 ± 0.16
17,ATAATATATATATATGCATGTACATATTTATCTTTA [TGCATGCA_site32],11.1 ± 0.75
18,ATATATATATATATATGTACATATATATATGTATAT [XGTACX_site3959],11.4 ± 1
19,ATATTATTTTAAAGTACACACATATATTAATATATA [CACACA_site2315],11.6 ± 1
20,TATACATACAGACCCACACACAAAAAAAAAAAAAAA [CACACA_site6536],10.3 ± 0.73
21,TTATACATAAATTTTGTACACACAAAAAAAAAAAAG [CACACA_site8374],11.2 ± 0.87
22,TTTCAAAAGTAATACTGTACTTATTTTTATGATTTA [XGTACX_site4184],11.6 ± 1.2

row,Sequence,gcPBM binding intensity (ln)
1,ACATATTTTATTTTTTGTACACATATATTATTTTTT [XGTACX_site6528],11.3 ± 0.66
2,TTTTTGTTAAACAGGGTGCTAATCTGAATTAATATT [GTGCAC_site9908],9.97 ± 0.13
3,GAATTTTTTTAATGTTGTACTTTTTTTTTTTTTTCT [XGTACX_site648],11.4 ± 0.96
4,ACATATATATATATATATATATATATATTACATTTA [CACACA_negctrl_site627],10.3 ± 0.45
5,CATACCATACATAAAACACACAAAATTTACAGAATA [CACACA_site7451],9.92 ± 0.028
6,AATAGTAAAAATCACTGTACGTTTATTTTTAAAATG [XGTACX_site1035],11.7 ± 0.91
7,CCATATACAACCATACGTACATATATATATATATAT [XGTACX_site8193],11.5 ± 0.99
8,TTTGGTTATATTTAAAAAAGACTAATGAAAATTAAA [XGTACX_negctrl_site526],9.81 ± 0.028
9,AAAAAAAAAAAAAATACACACATAAAATAAATAACA [CACACA_site439],10 ± 0.2
10,AATTTACAAATATAATGTACATAATTATATATATAT [XGTACX_site278],11 ± 0.53
11,ATATATATATATTACACACACACAAAAAAAATAAAG [CACACA_site118],10.4 ± 0.26
12,TATATACTTTTATGTACACACCTATAATATGGGTGA [CACACA_site5044],11.4 ± 0.7
13,ATATTATTTATAGGGTGTACCTTATTATTATAAGAA [XGTACX_site7148],11.2 ± 0.77
14,TAGAAAAACATTACGTGTACCAAACATCCTAGCAAC [XGTACX_site4888],10.9 ± 0.42
15,TATAATATTATACATAGTACACATCACACATCGCAA [XGTACX_site4650],11.2 ± 0.7
16,AAAATAAGGAAAAAAAAAAAAAAAAAAAAAAAAAAG [CACACA_negctrl_site1291],10.1 ± 0.13
17,ATAATATTTTGAAACGGTACACTTTTAAAATACACT [XGTACX_site4423],11 ± 0.69
18,AATAAAAATCCACAAGCACACAAATGTACTTATATA [CACACA_site8783],11.4 ± 0.85
19,TAAATACAAAAATGTACACACATATAAATATTTTTA [CACACA_site7612],11.4 ± 0.93
20,AAAAAAAAAAAACATACACACAAATATGTACATACA [CACACA_site7807],11.4 ± 0.81
21,TATATATTAATATATGCATGTACGATTATTATAATA [TGCATGCA_site446],11.2 ± 0.9
22,CTTAGTGTATTTGAATGTACGCATAAATATAATTAT [XGTACX_site2830],11.6 ± 1.1

row,Sequence,gcPBM binding intensity (ln)
1,ATTATTAAAATGATATGTACGCACATAATATACATA [XGTACX_site3236],11.6 ± 0.94
2,ACAAGATGATGGAAATGTACATAAAAAGAATCATAT [XGTACX_site8682],11.2 ± 0.63
3,TTTTTTTTTATATTTAGTACATATATATTATTATAT [XGTACX_site3334],10.9 ± 0.57
4,AACACTACATAAAACTGTACAATAGTATTTTATTAT [XGTACX_site996],10.9 ± 0.49
5,TTAATTAAATATTATACACACAAAAAAATAACTTTA [CACACA_site6197],10.1 ± 0.19
6,TGTATTTAAAATGGTTGTACATAAATAAAAATAAAA [XGTACX_site7771],11.3 ± 0.73
7,TATTGAAACGTATAGACACACATATGATATATATAT [CACACA_site3226],10.1 ± 0.18
8,ATTTATTTATTTATATGTACTTATATATGTATTTTC [XGTACX_site6269],11.3 ± 0.84
9,AAAGTGTTAACCTAATCTTTAGTTTTTAAACAATAT [CACACA_negctrl_site841],9.79 ± 0.11
10,ATTATATATACACGCACACACACTTATATATATATA [CACACA_site9093],10.4 ± 0.18
11,CATTCATTTATTAATTGTACTTTTAAGGTTAAATAA [XGTACX_site5838],11.4 ± 1.1
12,TAAAAATATATACATACATGCATACATATATATGTA [TGCATGCA_site774],9.81 ± 0.042
13,TTTTTAACATATCATACACACAACAACTTTTTATAG [CACACA_site1962],10.2 ± 0.27
14,CAAGCCCTTCTGCTTACACACAGTAATTATTGTGTA [CACACA_site2953],9.72 ± 0.18
15,AATATTTATTTTACATGTACTTATTTTTCTTTTAAC [XGTACX_site3631],11.4 ± 0.88
16,AATATATATTTATATTGTACATATATATATATTTCT [XGTACX_site2603],11 ± 0.64
17,TAATTTATTATATTTTGTACGTAAAATTATTATTGT [XGTACX_site8155],11.3 ± 0.81
18,TAGGAAAAGAAAAGCACACACATAAATAAATATATA [CACACA_site504],9.74 ± 0.11
19,CCATTAAATACATACACACCCACACCCAAAAAAAAA [CACACA_site4633],10.6 ± 0.43
20,ATATAGTAAAATTATACACACATGAATTTTCCCATA [CACACA_site3113],9.94 ± 0.028
21,ACAAAATTTACAAAATGTACATATTGTAGATATTGT [XGTACX_site7618],11.1 ± 0.62
22,AAAAAAAAAAATATAACACACAAAAAATTGTATCGA [CACACA_site1144],9.65 ± 0.18

row,Sequence,gcPBM binding intensity (ln)
1,TATATATAATTTTATACATGCACATATTATATATAT [TGCATGCA_site1036],9.96 ± 0.13
2,TATATTTTTTAAACCACACACAATATAGAGTATAAT [CACACA_site4510],10.5 ± 0.38
3,ATTTATTCATTTGGGTGTACTATTTAAAAAAAACAA [XGTACX_site498],11.4 ± 0.8
4,TATTTATATTTTAACACACACATATTTATATTTATA [CACACA_site7324],10 ± 0.31
5,AAAAAAAAAAAACATACACACAATAAAATAGGGGTA [CACACA_site2399],9.83 ± 0.085
6,ATTTATTTATTAAGATGTACTTATTAAAAATAATAA [XGTACX_site7392],11.4 ± 1.2
7,TATAAATAAAGACACACACACATATAAATAAATATA [CACACA_site7155],9.98 ± 0.23
8,TTTATATACTATTCAAAGTGATAAATAATATATGAA [TGCATGCA_negctrl_site352],9.76 ± 0.18
9,AATAAGAAATGTAAATGTACATAAAAAAAAGTATAT [XGTACX_site3573],11.2 ± 0.57
10,TATATATATATATTATGTACATATATATTAAATATG [XGTACX_site2494],11.2 ± 0.61
11,TTAGGGTTTTATAAATGTACTTATTTATACATCCTC [XGTACX_site5769],11.1 ± 0.88
12,CACATACAGACATACACACACATATAGATTAATATA [CACACA_site6399],10.2 ± 0.26
13,ATTTTTTAACATATCATACACACAACCACTTTTTAT [CACACA_site1961],10.6 ± 0.36
14,TAAACATTTTTGCACGCACACAAAAAAAAAATAAAA [CACACA_site167],10.5 ± 0.46
15,ATTAAATGCAGTTCGGTGCATTAAGGTTATGATGAA [GTGCAC_site9883],9.94 ± 0.11
16,AACATAAAAATGAACATACACACATATATATATATA [CACACA_site2497],10.1 ± 0.37
17,ATAAAAATACAGTTAACACACATGTGGATATATATG [CACACA_site3771],10.2 ± 0.049
18,CATACATACAGACACACACACATATATATATATATA [CACACA_site2920],10.3 ± 0.3
19,AGATATTATAATTAATGTACAAAAAGAAAAAATAGA [XGTACX_site8964],10.8 ± 0.35
20,AAACAAAAAAGTAAGAAAAGGGATGATTGGATCCAA [CACACA_negctrl_site1230],10.01 ± 0.057
21,TATTATTCTGTATTTGCATGTGATCATATATATGTA [TGCATGCA_site1053],10.095 ± 0.007
22,CATATGTATATGACTACACACAAGGGTGTACAGATA [CACACA_site4776],11.6 ± 0.95
